Among all 52,000 compounds or so, about 4,300 (8.3%) were called active. Rule as the data show it: active = survival mostly below about 52% (no sharp cut-off); inactive = mostly above about 56%. The list shows a part of the results.
The compounds below were run on DeltatarO mutant (assay: growth inhibition of S. aureus wild type versus tarO mutant, primary screen, teichoic acid synthesis inhibitors, RN4220, OD600 (AID 463173)). Conditions: OD600, 18 h, stronger effect = lower value, screened at 18.75 µg/mL (by protocol).
In the case of `COC(=O)c1cc2oc3ccccc3c2n1Cc1nc(-c2ccccc2C)oc1C`, the survival is reported as inactive: 127%.
In the case of `O=C(CSCc1cc(=O)c2cc(F)ccc2[nH]1)Nc1ccccc1Cl`, the survival is reported as inactive: 94%.
`Cc1cccc(N2CCN(S(=O)(=O)c3cc(C(=O)Nc4ccccc4Cl)ccc3F)CC2)c1C` was tested, and the survival was inactive: 83%.
In the case of `CCc1ccccc1NC(=O)CSc1nnc2ccc3ccccc3n12`, the survival is reported as inactive: 86%.
With `CC(C)(C)OC(=O)N1CCC(c2c(C(=O)NCCN3CCC(Cc4ccccc4)CC3)cnn2-c2ccc(F)cc2)CC1` the survival was active: 47%.
For `CCC(C)NC(=O)CCc1c(C)nc2nc(-c3cc(OC)cc(OC)c3)nn2c1C` (stereo unspecified), the survival was inactive: 82%.
For `Cc1ccc(NC(=O)[C@@H](c2ccccc2)N2Cc3ccccc3C2=O)cc1`, the survival was inactive: 71%.
`Cc1ccc(N2C(=O)CSC23C(=O)N(CC(=O)Nc2ccc(C(C)C)cc2)c2ccccc23)cc1C` (stereo unspecified) was tested, and the survival was inactive: 85%.
`Cc1coc2cc3oc(=O)c(CC(=O)NCCc4ccccc4)c(C)c3cc12` was tested, and the survival was inactive: 84%.
With `COc1cccc(NC(=O)C(Cc2ccccc2)NS(=O)(=O)c2ccc3c(c2)oc(=O)n3C)c1` (stereo unspecified) the survival was inactive: 129%.
In the case of `COc1ccc(-n2nc(C(=O)Nc3cccc(C)n3)c3c4ccccc4n(C)c3c2=O)cc1Cl`, the survival is reported as inactive: 66%.
In the case of `CCOc1ccc(CCNC(=O)CCc2cn(Cc3ccc(F)cc3)c3ccccc23)cc1`, the survival is reported as inactive: 67%.
With `O=C(Nc1cccnc1Cl)c1cc(-c2cccc(Cl)c2)on1` the survival was inactive: 72%.
For `COc1ccc(NC(=O)CSc2nc(NS(=O)(=O)c3ccccc3)cc(=O)[nH]2)cc1`, the survival was inactive: 72%.
For `CCOc1ccc(CCNC(=O)c2cc3c(-c4ccc(OC)c(OC)c4)nn(C)c3s2)cc1OCC`, the survival was inactive: 77%.
For `CCOc1ccc(NC(=O)Cn2cc(C(=O)c3ccco3)c3ccccc32)cc1`, the survival was inactive: 63%.
For `Cc1cc(S(=O)(=O)C(CNC(=O)COc2ccc(Cl)cc2)c2cccs2)ccc1F` (stereo unspecified), the survival was inactive: 98%.
`CCCN(CCC)C(=O)c1c2c(nc3ccccc13)C(=O)N(C1CCCCC1)C2` was tested, and the survival was inactive: 64%.
For `Cc1ccc(CCNC(=O)C2CCN(Cc3nc(-c4ccccc4C)oc3C)CC2)cc1`, the survival was inactive: 118%.
In the case of `CCCN(C(=O)c1coc(=O)c2ccccc12)c1ccccc1C`, the survival is reported as active: 56%.
In the case of `CC(C)CC(=O)Nc1c(C(=O)N2CCN(c3ccccc3)CC2)oc2ccccc12`, the survival is reported as inactive: 92%.
For `O=C(COc1ccccc1[N+](=O)[O-])N(Cc1ccco1)c1ccccn1`, the survival was inactive: 63%.
In the case of `COc1cc2c(=O)n(CCc3ccccc3)c(=O)n(CC(=O)Nc3ccccc3)c2cc1OC`, the survival is reported as inactive: 98%.
For `O=C(C1CCC1)N1CCc2cc(S(=O)(=O)NCc3ccc(F)cc3)ccc21`, the survival was inactive: 93%.
`COc1ccc(C)cc1NC(=O)N1CCCn2nc(C)cc21` was tested, and the survival was inactive: 73%.
For `COc1cc(NC(=O)c2cc(S(=O)(=O)N3CCc4ccccc43)cn2C)cc(OC)c1OC`, the survival was inactive: 63%.
In the case of `CC(C)n1c(=N)c(C(=O)NCc2ccccc2)cc2c(=O)n3ccccc3nc21`, the survival is reported as inactive: 87%.
For `Cc1ccc(C)c(CN2C(=O)c3ccccc3S(=O)(=O)c3ccc(C(=O)N4CCCCC4)cc32)c1`, the survival was inactive: 61%.
In the case of `CCc1ccccc1N(C)C(=O)c1cc2c(=O)oc3ccccc3c2s1`, the survival is reported as inactive: 42%.
`CC(=O)c1cccc(NC(=O)c2noc3c2CCCC3)c1` was tested, and the survival was inactive: 131%.
For `Cc1ccccc1Cn1c(CN2CCCC(C)C2)nc2c1c(=O)n(C)c(=O)n2C` (stereo unspecified), the survival was inactive: 97%.
For `Cc1ccc(C)c(N2CCN(C(=O)c3noc4c3CCCCC4)CC2)c1`, the survival was inactive: 106%.
For `O=C(Nc1ccc(S(=O)(=O)Nc2cccc(C(F)(F)F)c2)cc1)c1ccco1`, the survival was inactive: 81%.
`CCOc1ccc(C(=O)c2cn(CC(=O)Nc3ccc(Cl)cc3)c3cc4c(cc3c2=O)OCCO4)cc1` was tested, and the survival was inactive: 115%.
In the case of `CCc1cccc(C)c1NC(=O)c1cccc(C(=O)Nc2c(C)cccc2CC)c1`, the survival is reported as inactive: 76%.
In the case of `COc1ccc(OC)c(NC(=O)/C=C/c2ccc(C)o2)c1`, the survival is reported as active: 40%.
`CCOc1ccccc1NC(=O)Cn1c(=O)n(-c2cccc(C)c2)c(=O)c2c1c1cc(OC)ccc1n2C` was tested, and the survival was inactive: 67%.
In the case of `Cc1ccc(-c2c(C#N)c(SCC(=O)c3ccc(F)cc3)nc3c2CCCC3)o1`, the survival is reported as inactive: 119%.
`COc1ccc(C(=O)Cn2c(=O)c(-c3cc(C)ccc3NC(C)=O)nc3ccccc32)cc1` was tested, and the survival was inactive: 74%.
For `CC(=O)c1cc2c(cc1N/C(=N/S(=O)(=O)c1ccc(Br)cc1)c1ccccc1)OCO2`, the survival was inactive: 69%.
For `O=C(Cn1c(=O)n(CC2CCC(C(=O)NCCc3ccccc3)CC2)c(=O)c2ccccc21)Nc1cccc(F)c1` (stereo unspecified), the survival was inactive: 85%.
`COc1ccc(C2C=C(c3ccccc3)Nc3nc(NS(=O)(=O)c4ccc(Cl)cc4)nn32)cc1` (stereo unspecified) was tested, and the survival was active: 3%.
For `COC(=O)c1ccccc1NC(=O)N1CCc2c(sc3c2CCCC3)C1c1ccc(F)cc1` (stereo unspecified), the survival was inactive: 118%.
`O=C(COc1ccccc1)NC1CC(=O)N(c2ccc3c(c2)OCCO3)C1` (stereo unspecified) was tested, and the survival was inactive: 80%.
In the case of `O=C(CC1COc2ccccc2O1)NCc1ccccc1` (stereo unspecified), the survival is reported as inactive: 85%.
In the case of `COc1cc(CN2CCN(S(=O)(=O)c3ccccc3)CC2)cc(OC)c1O`, the survival is reported as inactive: 57%.
With `CCc1ccccc1NC(=O)C1=C(C)C(=O)OC12CCCCCC2` the survival was inactive: 58%.
In the case of `O=C(CNS(=O)(=O)c1cccs1)N1CCN(c2cccc(C(F)(F)F)c2)CC1`, the survival is reported as inactive: 83%.
In the case of `COc1ccc(CNC(=O)c2ccc(CS(=O)(=O)c3ccccc3OC)o2)cc1`, the survival is reported as inactive: 95%.
With `O=C(NCCc1nc2ccccc2n1Cc1ccc(F)cc1)c1ccco1` the survival was inactive: 47%.
In the case of `Cc1ccc(C)c(-c2[nH]c3c(c2-c2c(-n4cccc4)n(C)c(=O)[nH]c2=O)c(=O)[nH]c(=O)n3C)c1`, the survival is reported as active: 59%.
`CCN(CC)S(=O)(=O)c1ccc2c(c1)N(CC(=O)N1CCN(c3ccc(F)cc3)CC1)C(=O)CO2` was tested, and the survival was inactive: 94%.
In the case of `CCOc1ccc(CCNC(=O)Cn2nc(-c3ccc(C)cc3)ccc2=O)cc1OCC`, the survival is reported as inactive: 72%.
`CCN(CC)S(=O)(=O)c1ccc2oc(C(=O)N(C)Cc3ccccc3)c(C)c2c1` was tested, and the survival was active: 40%.
With `COc1ccc(Cn2c(=O)c3oc4ccccc4c3n(Cc3ccc(F)cc3)c2=O)cc1` the survival was inactive: 81%.
`Cc1cccc(N2CCN(C(=O)CCCCn3c(=O)[nH]c4ccsc4c3=O)CC2)c1C` was tested, and the survival was inactive: 51%.
For `COc1cc(C2CC(=O)Nc3cc4c(cc32)OCCO4)cc(Br)c1OC` (stereo unspecified), the survival was inactive: 68%.
For `Cc1cc(Nc2cccc(Cl)c2)nc2ccc(NC(=O)Cc3cccc(C(F)(F)F)c3)cc12`, the survival was inactive: 64%.
In the case of `Cc1cccc(NC(=O)C(=O)NCC(c2ccc3c(c2)OCO3)N2CCN(C)CC2)c1C` (stereo unspecified), the survival is reported as inactive: 74%.
`CCC(C)(C)n1nnnc1C(c1cccnc1)N1CCCC(C)C1` (stereo unspecified) was tested, and the survival was inactive: 91%.
In the case of `COc1ccc(CNC(=O)c2cc3c(=O)oc4ccc(C)cc4c3s2)c(OC)c1`, the survival is reported as inactive: 86%.
With `COc1ccc(OC)c(NC(=O)c2cccn2-c2nnc(N3CCCCC3)s2)c1` the survival was inactive: 75%.
With `COc1cc(NC(=O)CSc2ncc(S(=O)(=O)c3ccc(Br)cc3)c(=O)[nH]2)cc(OC)c1` the survival was inactive: 58%.
For `Cc1c2cnn(CC(=O)NCCc3ccccc3)c(=O)c2c(C)n1Cc1ccccc1`, the survival was inactive: 77%.
In the case of `CCN(CC)S(=O)(=O)c1ccc2c(c1)c(=O)c(C(=O)N1CCN(c3ccc(F)cc3)CC1)cn2C`, the survival is reported as inactive: 125%.
For `CCc1ccc(NC(=O)CSC2=Nc3ccccc3C3=NC(CC(=O)NCc4ccccc4)C(=O)N23)cc1` (stereo unspecified), the survival was inactive: 74%.
`O=C(Cn1ncc2c3ccccc3n(Cc3cccc(Cl)c3)c2c1=O)NC1CCCCCC1` was tested, and the survival was inactive: 129%.
With `O=C(Nc1ccccc1)c1cc2sccc2n1Cc1ccccc1` the survival was inactive: 87%.
For `CC(=O)N1CCc2cc(S(=O)(=O)CCC(=O)NCc3ccc(Cl)cc3)ccc21`, the survival was inactive: 71%.
In the case of `COC(=O)CCN(c1ccccc1)S(=O)(=O)c1cc(-c2cc(C)no2)ccc1OC`, the survival is reported as inactive: 77%.
With `CCN1CCSc2ccc(C(=O)NCc3ccc(OC)cc3)cc21` the survival was inactive: 66%.
`CC(C(=O)N1CCCCC1)N(c1ccccc1)S(C)(=O)=O` (stereo unspecified) was tested, and the survival was inactive: 79%.
In the case of `O=C(NCCCc1ccccc1)C1CCN(C(=O)N2CCOc3ccc(Cl)cc32)CC1`, the survival is reported as active: 46%.
`CCCC(=O)N1CCCC(c2nc3c(nnn3Cc3ccccc3)c(=O)[nH]2)C1` (stereo unspecified) was tested, and the survival was inactive: 102%.
With `Cn1ccc2c(OCC(=O)Nc3cc(C(F)(F)F)ccc3Cl)cccc2c1=O` the survival was inactive: 101%.
In the case of `CCOc1ccccc1NC(=O)CCn1nc(C)c(S(=O)(=O)N2CCCCC2)c1C`, the survival is reported as inactive: 87%.
In the case of `COc1cc(C)c(C)cc1S(=O)(=O)Nc1cccc(-c2ccc(N3CCOCC3)nn2)c1`, the survival is reported as inactive: 77%.
For `CCOCc1ccccc1Nc1ncnc2onc(-c3ccc(Cl)cc3)c12`, the survival was inactive: 125%.
`CCC(Sc1nncn2c1cc1oc(C)cc12)C(=O)Nc1ccc(F)cc1` (stereo unspecified) was tested, and the survival was inactive: 54%.
For `CCc1cccc(NC(=O)C(c2ccccc2)N2Cc3ccccc3C2=O)c1` (stereo unspecified), the survival was inactive: 87%.
In the case of `COCCn1c(=N)c(C(=O)NC(C)c2ccccc2)cc2c(=O)n3cc(C)ccc3nc21` (stereo unspecified), the survival is reported as inactive: 67%.
With `COc1ccc(CCNC(=O)C(=O)NCC(c2ccco2)S(=O)(=O)c2ccc(F)cc2)cc1` (stereo unspecified) the survival was inactive: 89%.
In the case of `O=C1CCSC2(C(=O)N(Cc3ccc(F)cc3)c3ccccc32)N1c1ccc(F)c(F)c1` (stereo unspecified), the survival is reported as inactive: 83%.
For `CCNC(=O)CC1C(=O)N(c2cccc(OC)c2)C(=O)N1Cc1ccc(OC)c(OC)c1` (stereo unspecified), the survival was inactive: 80%.
For `CCOc1ccc2oc(=O)cc(CN3CCN(C(=O)c4ccc(F)cc4)CC3)c2c1`, the survival was active: 31%.
`COC(=O)c1sc(N)c(C#N)c1C` was tested, and the survival was inactive: 74%.

Source: PubChem BioAssay AID463173 (ICCB-Longwood Screening Facility, Harvard Medical School, 2010)
